Test results as given in PubChem BioAssay AID488969 (Vanderbilt High Throughput Screening Facility, 2010).
Whole data set: some 110,000 compounds, median “z-score” near -0.1, cut for the highest 2% near 2. The list shows a part of the results. Calls of active or inactive are those of the source.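 How the source made its calls: active means z-score in the third read window above 3 or below -3; inactive means the rest.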

The compounds below were run against Metabotropic glutamate receptor 8 (Rattus norvegicus) (UniProt P70579) (assay: mGluR8 Gi/Go-coupled signaling modulation – cell-based, rat, thallium flux, HTS, primary screen (AID 488969)). Conditions: HEK293 rat mGluR8, GIRK (G protein-gated inwardly rectifying potassium channel) thallium flux, FluoZin2; at 10 µM; stronger effect = higher value; submaximal glutamate (EC20) added with thallium.
Chain of UniProt P70579 (P70579 whole entry, looked up): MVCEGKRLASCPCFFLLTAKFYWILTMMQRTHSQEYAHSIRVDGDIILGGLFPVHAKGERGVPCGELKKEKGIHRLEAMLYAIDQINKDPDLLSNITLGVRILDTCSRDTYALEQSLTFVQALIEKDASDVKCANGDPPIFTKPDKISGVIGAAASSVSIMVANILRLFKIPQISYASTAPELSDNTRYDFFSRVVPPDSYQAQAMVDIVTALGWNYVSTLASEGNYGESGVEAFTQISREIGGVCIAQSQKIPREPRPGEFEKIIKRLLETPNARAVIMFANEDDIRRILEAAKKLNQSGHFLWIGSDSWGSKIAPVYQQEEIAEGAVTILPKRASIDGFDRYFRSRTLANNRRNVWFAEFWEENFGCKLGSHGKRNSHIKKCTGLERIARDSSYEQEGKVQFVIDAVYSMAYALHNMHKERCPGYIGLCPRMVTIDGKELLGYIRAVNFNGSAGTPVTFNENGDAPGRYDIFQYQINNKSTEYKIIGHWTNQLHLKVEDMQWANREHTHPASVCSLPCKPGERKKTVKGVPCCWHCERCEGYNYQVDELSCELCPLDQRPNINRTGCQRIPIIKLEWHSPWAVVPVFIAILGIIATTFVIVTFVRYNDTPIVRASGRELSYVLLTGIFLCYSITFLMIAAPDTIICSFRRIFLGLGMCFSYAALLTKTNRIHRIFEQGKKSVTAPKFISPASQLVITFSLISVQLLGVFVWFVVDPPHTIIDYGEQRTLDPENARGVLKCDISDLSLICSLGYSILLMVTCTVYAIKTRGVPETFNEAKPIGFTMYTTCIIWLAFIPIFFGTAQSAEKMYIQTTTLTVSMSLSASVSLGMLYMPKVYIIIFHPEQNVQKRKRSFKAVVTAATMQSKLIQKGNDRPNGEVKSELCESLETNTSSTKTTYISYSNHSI
O=C(CN1CCCC1)N1c2ccccc2Sc2ccc(C(F)(F)F)cc21 gave a z-score of 0.663. With O=Cc1ccc(Sc2nnc(-c3ccccc3)o2)c([N+](=O)[O-])c1 the z-score was -0.48. Work on Cn1c(=O)n(C)c2cc(S(=O)(=O)N3CCOCC3)ccc21 yielded a z-score of -0.185. For O=C(NC1CC1)c1cc(-c2ccccn2)nc2ccccc12, the z-score was -0.16. CCC(Sc1nc2ccccc2c(=O)n1CC1CCCO1)C(=O)NCc1cccnc1 (centres undefined) was tested, and the z-score was 0.0564. With COc1c(N2CCN(C(=S)Nc3ccc(F)cc3)C(C)C2)c(F)cc2c(=O)c(C(=O)O)cn(C3CC3)c12 (centres undefined) the z-score was -0.443. Cc1cc(N2CCC(C(=O)N3CCN(c4cccc(C)c4C)CC3)CC2)n2ncnc2n1 was tested, and the z-score was -0.316. COc1ccccc1C1NC(c2ccccc2OC)C(C)C(=O)C1C (centres undefined) showed a z-score of -0.156. FC(F)Oc1ccc(NC(=S)NCc2ccccc2)cc1 showed a z-score of 1.51. COc1cc(NC(=O)CN2C(=O)C(c3ccccc3)=NC23CCCCCC3)cc(OC)c1 was tested, and the z-score was 0.52. Work on COc1ccc(-c2nc3scc(-c4ccc(OC)c(OC)c4)c3c(=O)o2)cc1 yielded a z-score of -0.103. CCOc1cc(N2CCOCC2)c(OCC)cc1NC(=O)Cc1cccc(OC)c1 showed a z-score of 0.174. For Cc1cc(Cl)ccc1OCCCC(=O)N1CCCCC1, the z-score was -0.56. COc1ccc2c(-c3cccnc3)cc(=O)[nH]c2c1 was tested, and the z-score was -0.00403. In the case of COc1cccc(-n2c(SC)nnc2-c2c[nH]c3ccccc23)c1, the z-score is reported as -0.763. For Cc1nn(Cc2c(Cl)cccc2Cl)c(Cl)c1/C=C/C(=O)OCC(=O)NCC(F)(F)F, the z-score was 0.111. Cc1cccc(N2C(=O)CC(N3CCN(Cc4ccc(Cl)cc4)CC3)C2=O)c1 (centres undefined) was tested, and the z-score was -0.358. COc1ccc(CCNS(=O)(=O)c2ccccc2)cc1OC was tested, and the z-score was -0.0361. In the case of C=C(C)Cn1c(SCC(=O)O)nnc1-c1ccc(C(C)(C)C)cc1, the z-score is reported as -0.161. With CCOC(=O)c1c(C)[nH]c(C(=O)CSc2nccc(C)n2)c1C the z-score was 0.221. For CCOC(=O)Nc1ccc(C)cc1Br, the z-score was 0.567. Work on Cc1cc(S(=O)(=O)NCC(=O)O)ccc1F yielded a z-score of 0.254. Compound CCN(CC)S(=O)(=O)c1ccc(N2CCCC2)c(C(=O)Nc2ccc(OC)c(Cl)c2)c1 has a z-score of -0.0234. Work on O=C(Nc1cccc(Cl)c1)OCc1cncs1 yielded a z-score of -0.255. Compound COc1cccc(/C=N/NC(=O)C(=O)Nc2ccccc2OC(F)(F)C(F)F)c1 has a z-score of -0.0878. Compound Cc1cc(C(C)c2ccccc2)c(O)c(CN2CCOCC2)c1C (centres undefined) has a z-score of -0.258. For CC(NC(=O)c1ccccc1Cl)c1nnc(SCC(=O)Nc2ccc(C(=O)O)cc2)n1C (centres undefined), the z-score was 0.391. Work on CCc1nc(SCC(=O)Nc2nc3c(s2)CCCC3)c2ccccc2n1 yielded a z-score of 0.0515. For CCC(C)[C@H](N)c1nnc(SCC(=O)c2ccc(Cl)cc2)o1 (some centres undefined), the z-score was -0.177. O=c1cc(CO)oc(C(Nc2ccccn2)c2ccc(F)cc2)c1O (centres undefined) showed a z-score of -0.459. For O=C(NC1CCCc2ccccc21)c1cccc(S(=O)(=O)N2CCN(c3ccccc3)CC2)c1 (centres undefined), the z-score was 2.28. CC(=O)/C=C/n1c(=S)oc2ccccc21 gave a z-score of 0.136. Work on Nc1nonc1-c1noc(-c2ccccc2)n1 yielded a z-score of -0.0288. O=C(CSc1ccc(C(F)(F)F)cc1[N+](=O)[O-])NCCOc1ccccc1 was tested, and the z-score was 0.0226. Compound N#Cc1cn(-c2ccccc2)nc1C(=O)c1ccccc1 has a z-score of -0.342. With CCC1(C)Cc2c(sc3c2c(=O)n(C)c2nnc(SCc4ccc5c(c4)OCO5)n32)CO1 (centres undefined) the z-score was active: 3.12. For O=c1[nH]c2c(n(C3CCCCC3)c1=O)CCC2, the z-score was -0.0408. In the case of N#C/C=C1\n2c(nc3ccccc32)OC12CCCCC2, the z-score is reported as 0.0617. Work on COC(=O)c1ccccc1NC(=O)C1CCN(C(=O)c2cc(OC)cc(OC)c2)CC1 yielded a z-score of -0.592. For Cc1cccc(N2C(=O)CC(NNc3nc4ccccc4s3)C2=O)c1 (centres undefined), the z-score was -0.0684. Cc1cc(C)nc(/N=C(\N)Nc2cccc([N+](=O)[O-])c2)n1 showed a z-score of -1.04. COc1ccc(C2c3cc(OC)c(OC)cc3CCN2C2CC(=O)N(c3ccccc3)C2=O)cc1OC (centres undefined) showed a z-score of 0.062. For O=C(COc1ccc(Cl)cc1)NCc1nnc(SCC(=O)NCCc2ccccc2)o1, the z-score was -0.644. CCOC(=O)c1cc(C)sc1NC(=S)Nc1ccccc1 gave a z-score of 0.88. For Cc1cc(C)n2nc(NCc3ccccc3)nc2n1, the z-score was -0.601. Compound Cn1c(=O)c2c(nc(SCC(=O)N(C3CCCCC3)C3CCCCC3)n2C)n(C)c1=O has a z-score of -0.138. With O=[N+]([O-])c1cc(C(F)(F)F)cc([N+](=O)[O-])c1NCCCNc1ccc([N+](=O)[O-])c2cccnc12 the z-score was -0.0992. For O=C(O)C1CC=CCC1C(=O)Nc1cccc(C(=O)N2CCCCC2)c1 (centres undefined), the z-score was 0.0928. Work on COc1cc(C(C#N)N2CCOCC2)ccc1O (centres undefined) yielded a z-score of 0.764. Work on CC(=O)Oc1ccc2c(C)cc(=O)[nH]c2c1 yielded a z-score of 0.128. In the case of COc1ccc(CCNC(C)=O)cc1, the z-score is reported as -0.267. With CCCCS(=O)(=O)/C=C\C1C2C=CC(C2)C1S(=O)(=O)CCCC (centres undefined) the z-score was 1.17. Compound ClC(Cl)c1nnc(-c2ccccc2)c(-c2c[nH]c3ccccc23)n1 has a z-score of -0.311. With Cc1ccc(NC(=S)NCC2CCCO2)cc1 (centres undefined) the z-score was 0.197. In the case of CCN(CC)S(=O)(=O)c1ccc(C)c(C)c1, the z-score is reported as -0.337. Work on CCc1ccccc1NC(=O)CCN1C(=O)c2ccccc2C1=O yielded a z-score of -0.102. For CN(C(=O)CSC1=Nc2ccccc2C2=NC(c3ccccc3)C(=O)N12)C1CCCCC1 (centres undefined), the z-score was active: -3.76. For Cc1nn(C)cc1C(C(=O)NC1CCCCC1)N(C(=O)Cc1cccs1)c1ccc(F)cc1 (centres undefined), the z-score was 0.0114. COc1ccc2cc(C(N)=O)/c(=N/NC(=O)c3ccco3)oc2c1 gave a z-score of -0.177. Cc1ccc(NC(=O)c2ccc(CSc3ccccn3)cc2)cc1 was tested, and the z-score was 0.482. In the case of CCCNC(=O)c1ccccc1NC(=O)c1ccccc1N(C)S(=O)(=O)c1ccccc1, the z-score is reported as -0.459. In the case of COc1cc(C2CC(=O)c3cnc(NC(C)=O)nc3C2)cc(OC)c1OC (centres undefined), the z-score is reported as -0.201. For CCn1c(=O)cc(OCC(=O)N2CCN(C(=O)c3ccco3)CC2)c2ccccc21, the z-score was -0.137. For CC1(C)C(=O)OC(C(=O)c2ccccc2)C(C)(C)C1=O (centres undefined), the z-score was -0.295. Work on COc1ccc(-c2c3c(nc4sc5c(=O)[nH]c(C)nc5c24)CCC3)cc1 yielded a z-score of -0.26. Cc1c(Cc2ccccc2)c(=O)oc2c(C)c(OCC(=O)Nc3ccc(C#N)cc3)ccc12 showed a z-score of -0.0772. O=C(COc1ccccc1C(=O)c1cnn(-c2ccccc2)c1)Nc1ccccc1 gave a z-score of -0.24. For COC(=O)c1ccc(CSc2nc3c(cnn3-c3ccc(C)cc3)c(=O)[nH]2)o1, the z-score was -0.0231. COc1ccccc1NC(=S)N1CCC(c2nc3ccccc3o2)CC1 was tested, and the z-score was -0.331.
